Measured values from PubChem BioAssay AID1347417 (National Center for Advancing Translational Sciences (NCATS), 2020).
About 5,300 (4.4%) of roughly 120,000 compounds were called active. The inconclusive results got no clear call from the source; some entries with a clear call stand among them for comparison. Calls follow the shape of the dose curve; as a rule, active = well fitted inhibition curve with a large enough effect; inconclusive = small, poorly fitted or top-dose-only effect; inactive = no such curve, though single readings can be large or run the other way. Potencies beside an inconclusive call are fits to weak or partial responses and may not hold up.

Assay: qHTS Primary assay for Inhibitors of Plasmodium falciparum Dd2 growth in vitro; also: nearly all actives have a fitted effect of over 65% in size;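 as to activity, negative = inhibition: plate controls were DMSO vehicle for no effect and reference drug for full effect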
Details: P. falciparum Dd2 growth, SYBR Green, 72 h; activity, negative = inhibition: at 28.9 µM (top of the series) unless noted; series mostly up to 28.9 µM
In short: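 Readout: SYBR Green fluorescence, 485 nm excitation, 535 nm emission, after ~16 h lysis at 37C. Before that, Dd2-infected red cells (2.5% hematocrit) grew 72 h with compound, 29 uM top final concentration.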
Potency is read from the fitted curve at half-maximal effect; tags tell the direction and shape of the fitted curve.

| Compound | Potency | activity, negative = inhibition |
| --- | --- | --- |
| CCC1c2nccn2CCCN1C(=O)COc1ccc(F)cc1 (stereo not drawn) | inconclusive: 11.2 µM [inhibitor, single point] |  |
| O=C(NC[C@H]1O[C@H](Cc2cc(CN3CCOCC3)on2)CC[C@@H]1O)c1ccccc1 | inconclusive: 31.6 µM [inhibitor, single point] |  |
| CS(=O)(=O)c1ccc(CC(=O)N2CCc3n[nH]c(=O)n3CC2)cc1 | inactive |  |
| FC(F)(F)c1cccc(C2=NOC3(CCCN(Cc4cccnc4)C3)C2)c1 (stereo not drawn) | inactive |  |
| O=C(C1CCN(c2cnc3nccnc3c2)CC1)N1CCCCCC1 | inactive |  |
| CN1C[C@@H](NC(=O)c2cnccn2)C[C@H]1c1nc(-c2ccc(OC(F)(F)F)cc2)no1 | active: 14.1 µM |  |
| CN(C)C[C@@H]1CN(C)C[C@H]1NC(=O)c1cc2ccccc2[nH]1 | inactive |  |
| COc1ccc(CCC(=O)N2CC[C@H]3C(=O)NCCCCCCN(Cc4ccncc4)[C@@H]3C2)cc1 | inconclusive: 3.98 µM [inhibitor, partial curve] |  |
| CC(C)NC(=O)C1c2ccccc2C(=O)N(Cc2ccco2)C12CCCC2 (stereo not drawn) | inactive |  |
| Cc1ccc(-c2cc3c(n2-c2ccc(C)cc2)CC(C)(C)CC3=O)cc1 |  | inactive: -25% [at 5.79 µM] |
| O=C(c1cccc(N2CCNC2=O)c1)N1CCCC(CCc2ccccc2F)C1 (stereo not drawn) | inactive |  |
| Cc1ccc(C2=NN(CC(=O)NCCN(CC(C)C)CC(C)C)C(=O)CC2)cc1 | inconclusive: 7.94 µM [inhibitor, partial curve] |  |
| CCn1cc(CN2CCC(N3C(=O)C4(CCCCC4)C3c3ccncc3)CC2)cn1 (stereo not drawn) | inactive |  |
| CC(C)NC(=O)C1CCN(c2nc3ccccc3nc2C(F)(F)F)CC1 | inconclusive: 20 µM [inhibitor, single point] |  |
| COCc1noc(CC2CN(C(=O)c3cn(-c4ccccc4)nn3)CCO2)n1 (stereo not drawn) | inactive |  |
| CCCCNC(=O)CSc1nnc(C)c2c(C)n(-c3ccccc3)nc12 | inconclusive: 20 µM [inhibitor, single point] |  |
| Cc1ccc(Cn2c(C)c(CNCCCc3ccccc3)c(C(=O)O)c2C)cc1 | inconclusive: 8.91 µM [inhibitor, partial curve] |  |
| CCOc1ccc(CC(=O)N[C@@H]2CN(c3ncccn3)C[C@H]2CN(C)C)cc1 | inconclusive: 0.447 µM [inhibitor, full curve, poor fit] |  |
| CCNC(=O)N1CCC(N2C(=O)C3(CCCC3)C2c2ccccc2)CC1 (stereo not drawn) | active: 11.2 µM |  |
| C=CCOc1c(Cl)cc(CNC(C)Cn2cccn2)cc1OC (stereo not drawn) | inconclusive: 8.91 µM [inhibitor, partial curve, poor fit] |  |
| CC(C)N(Cc1ccccc1)C(=O)CCS(=O)(=O)c1ccc2c(c1)oc(=O)n2C | inconclusive: 10 µM [inhibitor, single point] |  |
| c1ccc(-c2noc(-c3ccn4c(CN5CCN(c6ccccc6)CC5)nnc4c3)n2)cc1 | inactive |  |
| Cc1ccc(S(=O)(=O)c2cn(C)c3cc(N4CCCC(C)C4)c(F)cc3c2=O)c(C)c1 (stereo not drawn) | inconclusive: 11.2 µM [inhibitor, single point] |  |

| Compound | Potency | activity, negative = inhibition |
| --- | --- | --- |
| O=C(CCn1cncn1)N1CCC(c2[nH]ncc2-c2cccc(F)c2)CC1 | inactive |  |
| COc1ccc(-c2cc3nc4c(c(=O)n3[nH]2)CN(C(=O)c2ccc(C)nc2)CC4)cc1 |  | inactive: -16.8% [at 5.79 µM] |
| CCC(=O)N1Cc2ccccc2CC2(CCN(Cc3ccc(OC)cc3)C2)C1 (stereo not drawn) | inconclusive: 8.91 µM [inhibitor, single point] |  |
| COc1ccc(OC)c(NC(=O)N2c3ccccc3CC2c2nc(C3CC3)no2)c1 (stereo not drawn) |  | inactive: -0.648% [at 5.79 µM] |
| COc1ccccc1CNC(=O)[C@@H](C)C1CC[C@@]2(C)CC[C@H](NC(=O)c3cncnc3)[C@@H](C)[C@@H]2[C@H]1O (stereo partly drawn) | inconclusive: 0.224 µM [inhibitor, full curve, poor fit] |  |
| CN1[C@@H](CCC(=O)NCc2cccs2)CNC(=O)[C@@H]2[C@H]1CCN2Cc1ccc(C(F)(F)F)cc1 | inconclusive: 20 µM [inhibitor, single point] |  |
| COc1ccc(C(=O)N2CC[C@@H]3CN(S(C)(=O)=O)[C@@H]3C2)cn1 | inactive |  |
| CCCN1C(=O)C(Cc2nc3ccccc3c(=O)n2-c2cccc(C)c2)c2ccccc21 (stereo not drawn) | inconclusive: 10 µM [inhibitor, single point] |  |
| CCN(CC)c1ncccc1CNC(=O)Nc1cccc(OC)c1 | inconclusive: 7.08 µM [inhibitor, partial curve, poor fit] |  |
| Cn1cnc(S(=O)(=O)N2CCCCC2c2nc(-c3ccncc3)n[nH]2)c1 (stereo not drawn) | inactive |  |
| COc1ccccc1CNC(=O)c1ccc(N2Cc3cccc(OC)c3Oc3ncccc32)s1 | inconclusive: 10 µM [inhibitor, single point] |  |
| O=S(=O)(NC[C@H]1C[C@@H]2CCN1C[C@@H]2CN1CCN(c2ncccn2)CC1)c1ccccc1 | inconclusive: 11.2 µM [inhibitor, single point] |  |
| COc1cccc(C(=O)N2CCN(C(=O)c3nnn4c3COC(c3ccc(F)cc3)C4)CC2)c1 (stereo not drawn) | inconclusive: 2.24 µM [inhibitor, full curve, poor fit] |  |
| NC(=O)CCNC(=O)[C@@H]1C[C@@H](NS(=O)(=O)c2cccs2)CCN1C(=O)COCC(=O)O | inactive |  |
| O=C(NCc1ccccc1)O[C@@H]1CO[C@H]2[C@@H]1OC[C@@H]2Nc1nccc(-c2ccc3c(c2)OCO3)n1 | inactive |  |
| Cc1cccc(-c2noc(-c3ccc(N4CCN(C)CC4)c([N+](=O)[O-])c3)n2)c1 | inconclusive: 17.8 µM [inhibitor, single point] |  |
| O=C(c1ccc(F)cc1)N1CCCN(Cc2ccc3c(c2)OCO3)c2ccccc21 | inconclusive: 17.8 µM [inhibitor, single point] |  |
| O=c1cc(-c2cccnc2)oc2c(-c3ccccc3O)nccc12 | inconclusive: 1.58 µM [inhibitor, partial curve, poor fit] |  |
| COc1ccc(C)cc1NC(=O)c1ccc2c(c1)CCN2S(=O)(=O)c1ccc(Cl)cc1 | inconclusive: 17.8 µM [inhibitor, single point] |  |
| Cc1ccc(CNC(=O)c2ccc3c(c2)CN(C2CCN(CC(C)C)CC2)CCO3)cc1 | inconclusive: 17.8 µM [inhibitor, single point] |  |
| Cc1ccc(C)c(CN2CCC(CNC(=O)c3cc4ccc5cccnc5c4[nH]3)CC2)c1 | active: 2.82 µM |  |
| CCOC(=O)c1ccc(CN(Cc2ccccc2C)S(=O)(=O)c2ccc(C(C)(C)C)cc2)cc1 | inconclusive: 12.6 µM [inhibitor, single point] |  |
| COc1nccc(N2CCC(CC(=O)NCCN3CCC(C)CC3)CC2)n1 | inconclusive: 10 µM [inhibitor, single point] |  |

| Compound | Potency | activity, negative = inhibition |
| --- | --- | --- |
| O=C(C1CC1)N1CCCC(c2nn(-c3ccc(F)cc3)c(=O)[nH]2)C1 (stereo not drawn) | inconclusive: 31.6 µM [inhibitor, single point] |  |
| Cc1cccnc1CN1CCN2C(=O)N(c3ccccc3)C[C@H]2C1 | inactive |  |
| Cc1ncc(-c2ccc(F)c3cccnc23)nc1C | inactive |  |
| COCCC1(NS(C)(=O)=O)CCN(S(=O)(=O)c2ccc3c(c2)OCCO3)CC1 | inconclusive: 10 µM [inhibitor, single point] |  |
| COc1cccc(CN2CCOC3CCN(Cc4cccc(F)c4)CC3C2=O)c1 (stereo not drawn) | inconclusive: 3.16 µM [inhibitor, partial curve, poor fit] |  |
| CCc1ccc(CN2CCC3(CC2)Cc2ccccc2CNC3=O)s1 | inactive |  |
| COc1ccc(CNC(=O)CCC(=O)N2CC3CCCN3c3ccccc32)c(OC)c1 (stereo not drawn) | inactive |  |
| Cc1noc(-c2cccn3c(CNC(=O)c4cccc(N(C)C)c4)nnc23)n1 | active: 0.562 µM |  |
| Cc1ccc(-n2ncc3c(N4CCN(C)CC4)ncnc32)cc1Cl | inconclusive: 10 µM [inhibitor, single point] |  |
| O=C(CC1CCN(C(=O)c2ccc(F)cc2)C1)NC1CC1 (stereo not drawn) | inactive |  |
| Cc1ccc2c(c1)N(C(=O)N1CCC(C(=O)NC3CCCCCC3)CC1)CC(C)O2 (stereo not drawn) | inconclusive: 10 µM [inhibitor, single point] |  |
| OC1(CN2CCN(C(c3ccccc3)c3ccccc3)CC2)CNCCOC1 (stereo not drawn) | active: 6.31 µM |  |
| CNC(=O)c1ccc(C2CCCN2C(=O)CCc2cc3n(n2)CCCNC3)s1 (stereo not drawn) | inactive |  |
| CCOc1ccc(-n2c(SCC(=O)Nc3ccc(F)cc3)nc3c([nH]c4ccccc43)c2=O)cc1 | inconclusive: 17.8 µM [inhibitor, single point] |  |
| O=C(NCC1(COc2cnccn2)C[C@@H](O)[C@@H](O)C1)Nc1cccnc1 (stereo partly drawn) | inactive |  |
| Cc1ccc(CNC(=O)Cn2c(C)cc3nc4n(c(=O)c32)CCCC4)cc1 | inactive |  |
| CCC(Sc1nc2nccnc2c(=O)n1Cc1ccc(OC)cc1)C(=O)NC1CCCCC1 (stereo not drawn) | inconclusive: 15.8 µM [inhibitor, single point] |  |
| CC[C@H]1CN2CC[C@H]1C[C@@H]2CNC(=O)c1ccc(-c2ccccc2)cc1 | inactive |  |
| c1ccc(CNc2cc(-c3cc(N4CCCCC4)ncn3)c3cc[nH]c3n2)nc1 | inconclusive: 8.91 µM [inhibitor, partial curve] |  |
| CCOc1ccc(NC(=O)CC2CCCN(c3cnn(CC4CC4)c(=O)c3)C2)cc1 (stereo not drawn) | inconclusive: 6.31 µM [inhibitor, partial curve, poor fit] |  |
| COc1ccc(C(=O)N2CCC3(CC2)NC(=O)N(Cc2ccc(F)cc2)C3=O)c(C)c1 | inactive |  |
| CCCCn1c(CN(C)Cc2[nH]c3ccccc3c2C)cnc1S(=O)(=O)CC | inconclusive: 17.8 µM [inhibitor, single point] |  |
